{"source": "PubChem BioAssay AID686979", "about": "(National Center for Advancing Translational Sciences (NCATS), 2013)", "note": "“And” between values parts separate entries of the source, which are not always exact repeats. Equal entries are not always repeated. Among all 420,000 compounds or so, about 50,000 (12%) were called active. Inconclusive results, whose numbers are uncertain, are shown with a selection of clear calls. Calls come from the whole dose curve; as a rule, active = well fitted inhibition curve with a large enough effect; inconclusive = small, poorly fitted or top-dose-only effect; inactive = flat fitted curve, though single readings scatter. Where the call is inconclusive, the potency comes from a doubtful curve fit. % is set by controls: 0 for no effect and ±100 for the full control effect; potency is the fitted concentration of half-maximal effect; tags give direction and shape of the fitted curve."}
{"assay": "qHTS for Inhibitors of human tyrosyl-DNA phosphodiesterase 1 (TDP1): qHTS in cells in presence of CPT; note: nearly all actives have a fitted effect of over 55% in size", "conditions": "chicken DT40 Tdp1-/-;hTDP1 cells + 20 nM CPT, ATP luminescence, 48 h; activity change, negative = growth inhibition: at 46.2 µM (top of the series) unless noted", "outline": "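Chicken DT40 Tdp1-/- cells complemented with human TDP1, 400 cells/well, exposed to compounds plus 20 nM camptothecin for at least 48 h at 37 C; viability read as ATP content by CellTiter-Glo luminescence.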"}
{"smiles": "COc1ccc2c(c1)c1c(c(=O)n(-c3ccc(OC)c(OC)c3)c(=O)n1Cc1ccccc1F)n2C", "activity change, negative = growth inhibition": "inactive: -15.1%"}
{"smiles": "Cc1cc(N)n(-c2nc(-c3cccnc3)nc3ccccc23)n1", "Potency": "active: 25.9 µM"}
{"smiles": "O=S(=O)(O)CC(S)CS", "note": "(configuration not stated)", "Potency": "active: 8.41 µM"}
{"smiles": "CC(C)[C@H](N)C(=O)NC[C@H]1CC[C@H](C(=O)N[C@@H](Cc2ccccc2)C(=O)O)CC1", "activity change, negative = growth inhibition": "inactive: 8.1%"}
{"smiles": "CC(C)Oc1cccc(C2CC(=O)Nc3cc4c(cc32)OCO4)c1", "note": "(configuration not stated)", "Potency": "active: 2.59 µM"}
{"smiles": "CC(=O)c1ccc(Nc2ccc3cc(S(=O)(=O)N4CCCC4)ccc3n2)cc1", "Potency": "active: 20.6 µM"}
{"smiles": "Cc1ccc(NS(=O)(=O)c2cc(NC(=O)c3cc4c(s3)CCCC4)ccc2C)c(C)c1", "Potency": "inconclusive: 14.6 µM [inhibitor, partial curve]"}
{"smiles": "CCN(CC)S(=O)(=O)c1ccc2c(c1)c(=O)c(C(=O)NCc1cccs1)cn2C", "Potency": "inconclusive: 29.1 µM [inhibitor, single point]"}
{"smiles": "CCCn1c(=O)c2c(C(F)(F)F)cc(-c3cccs3)nc2n(CCC)c1=O", "activity change, negative = growth inhibition": "inactive: -20.2%"}
{"smiles": "Cc1ccccc1-n1cc(CNCc2c(C(=O)N(C)C)nc3ccc(Cl)cn23)cn1", "Potency": "inconclusive: 20.6 µM [inhibitor, single point]"}
{"smiles": "CC1Cc2ccccc2N1C(=O)CSc1nc2c(c(=O)n(C)c(=O)n2C)n1Cc1ccccc1", "note": "(configuration not stated)", "Potency": "active: 23.1 µM"}
{"smiles": "O=C(NCCS(=O)(=O)N1CCN(c2ccc(F)cc2)CC1)c1cccc(C(F)(F)F)c1", "Potency": "inconclusive: 29.1 µM [inhibitor, single point]"}
{"smiles": "NC(=O)CC(NC(=O)c1ccccc1)c1ccc(N2CCCCCC2)c([N+](=O)[O-])c1", "note": "(configuration not stated)", "Potency": "inconclusive: 18.4 µM [inhibitor, single point]"}
{"smiles": "Cc1noc(C)c1C(=O)OCC(=O)Nc1c(F)cccc1F", "Potency": "active: 16.4 µM"}
{"smiles": "N#CCN1CCN(CCC(=O)Nc2ccc(OCc3ccccc3)cc2)CC1", "activity change, negative = growth inhibition": "inactive: -16.7%"}
{"smiles": "CCn1c(=O)c2cc(C(=O)NCC(OC)OC)sc2c2ccccc21", "Potency": "inconclusive: 29.1 µM [inhibitor, single point]"}
{"smiles": "O=[N+]([O-])c1ccc(CN2CC(N3CCC(c4ccccc4)CC3)CS2(=O)=O)cc1", "note": "(configuration not stated)", "Potency": "active: 18.4 µM"}
{"smiles": "CN1CCN(Cc2cc(=O)oc3cc4c(cc23)CCC4)CC1", "Potency": "inconclusive: 3.26 µM [inhibitor, full curve, poor fit]"}
{"smiles": "O=C(Cc1ccc([N+](=O)[O-])cc1)NCCS(=O)(=O)N1CCN(c2ccccc2)CC1", "Potency": "inconclusive: 7.31 µM [inhibitor, partial curve]"}
{"smiles": "CC(C)CCN1CCN(CC(c2ccccc2)c2ccccc2)CC1CCO", "note": "(configuration not stated)", "Potency": "active: 23.1 µM"}
{"smiles": "CCN(c1ccccc1)S(=O)(=O)c1ccc(Cl)c(C(=O)NC2CCN(Cc3ccccc3)CC2)c1", "Potency": "active: 9.2 µM"}
{"smiles": "COc1ccccc1-c1nc(Nc2ccncc2)c2ccccc2n1", "Potency": "inconclusive: 20.6 µM [inhibitor, single point]"}
{"smiles": "COc1ccc(-n2nnnc2SCC(=O)Nc2cccc(O)c2)cc1", "activity change, negative = growth inhibition": "inactive: -22.5%"}
{"smiles": "Cc1ccc(C(=O)/C=C/C(=O)O)cc1", "Potency": "inconclusive: 23.1 µM [inhibitor, single point]"}
{"smiles": "CC1CN(S(=O)(=O)c2cccc(C(=O)OCC(=O)Nc3ccc4c(c3)OCO4)c2)CC(C)O1", "note": "(configuration not stated)", "Potency": "inconclusive: 18.4 µM [inhibitor, single point]"}
{"smiles": "O=C(Nc1cccc(C(=O)N2CCN(c3cccc(Cl)c3)CC2)c1)c1nsc2ccccc12", "Potency": "active: 18.4 µM"}
{"smiles": "CCOC(=O)CC(NC(=O)C(CC)c1ccccc1)c1ccccc1Cl", "note": "(configuration not stated)", "Potency": "inconclusive: 18.4 µM [inhibitor, single point]"}
{"smiles": "CCCCCCCCNC(=O)/C(C#N)=C/c1ccc(SC)cc1", "Potency": "inconclusive: 16.4 µM [inhibitor, partial curve]"}
{"smiles": "O=[N+]([O-])c1ccc(S(=O)(=O)Nc2ccc3c(c2)OCCO3)cc1", "Potency": "inconclusive: 23.1 µM [inhibitor, single point]"}
{"smiles": "c1ccc2c(c1)CC(N1CCCCC1)c1ccccc1S2", "note": "(configuration not stated)", "Potency": "inconclusive: 29.1 µM [inhibitor, single point]"}
{"smiles": "CC(=O)N1CCC2(CCCN(Cc3nccs3)C2)CC1", "activity change, negative = growth inhibition": "inactive: 5%"}
{"smiles": "CCOC(=O)N1CCC(NC(=O)c2ccc3c(c2)N(Cc2ccc(F)cc2)CCS3)CC1", "Potency": "active: 23.1 µM"}
{"smiles": "C=CCOc1c(Cl)cc(CNCCC)cc1Cl", "activity change, negative = growth inhibition": "inconclusive: -33.1% [inhibitor]"}
{"smiles": "Cc1ccccc1Cn1c2ccccc2c2cnn(CC(=O)NCC(C)c3ccccc3)c(=O)c21", "note": "(configuration not stated)", "Potency": "inconclusive: 7.31 µM [inhibitor, partial curve]"}
{"smiles": "O=C(COc1cc(Cl)c(Cl)cc1Cl)Nc1cccc(O)c1", "Potency": "inconclusive: 23.1 µM [inhibitor, single point]"}
{"smiles": "Cc1ccc(C(=O)NCC(=O)Nc2ccc3c(c2)OCCO3)cc1", "Potency": "inconclusive: 5.8 µM [inhibitor, single point]"}
{"smiles": "Cc1c(C)n(Cc2ccccc2)c2ccc(C(=O)OCCN(C)C)cc12", "Potency": "inconclusive: 23.7 µM [inhibitor, single point] and inconclusive: 29.1 µM [inhibitor, single point]"}
{"smiles": "O=C(CC(c1ccccc1)c1ccccc1)NCCOCc1ccccc1", "activity change, negative = growth inhibition": "inactive: -29.1%"}
{"smiles": "O=C(NCc1ccccc1Cl)c1ccc(Cn2c(SCc3ccccc3)nc3cccnc32)cc1", "Potency": "inconclusive: 29.1 µM [inhibitor, single point]"}
{"smiles": "Cc1ccccc1-n1c(=O)cc(N2CCCCCC2)[nH]c1=O", "activity change, negative = growth inhibition": "inactive: 12.3%"}
{"smiles": "COCCCNCCCCOc1cccc(Br)c1", "Potency": "inconclusive: 29.1 µM [inhibitor, single point]"}
{"smiles": "CCC1CCCCN1c1nc(-c2cccc(OC)c2O)nc2ccccc12", "note": "(configuration not stated)", "Potency": "inconclusive: 23.1 µM [inhibitor, single point]"}
{"smiles": "CCOC(=O)C1CCN(C(=O)c2ccc(NC(=O)c3nsc4ccccc34)cc2)CC1", "Potency": "active: 20.6 µM"}
{"smiles": "COc1ccc(CCNC(=O)c2cc3c(=O)n4ccccc4nc3n(C3CCCCC3)c2=N)cc1OC", "Potency": "inconclusive: 29.1 µM [inhibitor, single point]"}
{"smiles": "O=C(Nc1ccc(Cl)c(Cl)c1)Nc1ccc(N2CCCC2)c(S(=O)(=O)Nc2ccccc2Cl)c1", "Potency": "active: 3.26 µM"}
{"smiles": "COC(=O)c1ccccc1NC(=O)CSc1nc(NC(=O)c2ccccc2)c2c(C)c(C)oc2n1", "Potency": "inconclusive: 29.1 µM [inhibitor, single point]"}
{"smiles": "COc1ccc(/C=N/NC(=O)CC(=O)N/N=C/c2ccc(OC)cc2)cc1", "activity change, negative = growth inhibition": "inactive: -12.7%"}
{"smiles": "Cc1cc(CC(=O)O)c2oc(-c3ccoc3)cc(=O)c2c1", "activity change, negative = growth inhibition": "inactive: 10.5%"}
{"smiles": "CSc1ccc(CCNC(=O)C(C)n2nc(C)c3sc4ccccc4c3c2=O)cc1", "note": "(configuration not stated)", "Potency": "inconclusive: 29.1 µM [inhibitor, single point]"}
{"smiles": "O=C1N/C(=N\\N=C\\c2cccs2)SC1Cc1ccc(Cl)cc1", "note": "(configuration not stated)", "Potency": "inconclusive: 14.6 µM [inhibitor, partial curve]"}
{"smiles": "O=C(CCn1ccc2cc(S(=O)(=O)N3CCCC3)ccc21)NCc1cccc(Cl)c1", "Potency": "inconclusive: 9.2 µM [inhibitor, single point]"}
{"smiles": "OC(COc1ccc2ccccc2c1Br)Cn1ccnc1", "note": "(configuration not stated)", "Potency": "inconclusive: 23.1 µM [inhibitor, single point]"}
{"smiles": "CCOC(=O)Cn1cnc2c(cnn2-c2ccc(OC)cc2)c1=O", "activity change, negative = growth inhibition": "inactive: -17.2%"}
{"smiles": "CCCCCCCCCCCCC(=O)N1CCCC[C@H]1CNC(=O)[C@@H](N)CCCCN", "Potency": "active: 13.3 µM"}
{"smiles": "COc1ccc(C(=O)Nc2ccc(Cl)cc2C(=O)NCc2ccco2)cc1", "Potency": "active: 5.17 µM"}
{"smiles": "COc1ccc(Cn2c(=O)c3[nH]cnc3n(-c3ccccc3C)c2=O)cc1", "Potency": "active: 3.66 µM"}
{"smiles": "CCOC(=O)Cn1c(C(F)(F)F)nc2nc(Cl)c(Cl)nc21", "activity change, negative = growth inhibition": "inactive: 4.3%"}
{"smiles": "COc1ccc(CNCC(O)COc2ccc(C(C)(C)c3ccccc3)cc2)cc1", "note": "(configuration not stated)", "Potency": "inconclusive: 18.4 µM [inhibitor, single point]"}
{"smiles": "CC(=O)c1ccc2c(c1)N(Cc1ccc3ccccc3c1)C(=O)C(C)S2", "note": "(configuration not stated)", "Potency": "active: 5.8 µM"}
{"smiles": "CCN(CC(=O)N1CCN(Cc2ccccc2)CC1)S(=O)(=O)c1ccc(F)cc1", "Potency": "inconclusive: 20.6 µM [inhibitor, partial curve]"}
{"smiles": "CC(=O)N1c2ccc(S(=O)(=O)NCC3CCC(C(=O)Nc4ccc(C)c(C)c4)CC3)cc2CC1C", "note": "(configuration not stated)", "Potency": "active: 16.4 µM"}
{"smiles": "COC(=O)c1ccc2nc(Nc3nc4c(F)cc(F)cc4s3)sc2c1", "Potency": "inconclusive: 8.2 µM [inhibitor, partial curve]"}
{"smiles": "COc1ccc2c(c1)Cc1sc(NC(=O)c3ccco3)nc1-2", "Potency": "inconclusive: 25.9 µM [inhibitor, single point]"}
{"smiles": "Cc1ccc(NC(=O)c2ccc(CNS(=O)(=O)c3ccc4c(c3)C(C)(C)C(=O)N4C)cc2)cc1C", "Potency": "active: 14.6 µM"}
{"smiles": "CCCC(CCC)C(=O)Nc1ccc2c(c1)N(C(=O)CN1CCN(C)CC1)c1ccccc1CC2", "Potency": "inconclusive: 18.4 µM [inhibitor, single point]"}
{"smiles": "Cc1cc(C(=O)NCc2cccc(Br)c2)c2c(C)nn(-c3ccccc3)c2n1", "activity change, negative = growth inhibition": "inactive: -23.4%"}
{"smiles": "CCOc1ccc(Nc2cc(C)c3ccccc3n2)cc1", "Potency": "inconclusive: 20.6 µM [inhibitor, single point]"}
{"smiles": "CCOc1cc(N2CCOCC2)c(OCC)cc1NC(=O)Cc1cccc2ccccc12", "Potency": "inconclusive: 29.1 µM [inhibitor, single point]"}
{"smiles": "Cc1ccc(C(=O)Nc2nnc(COCCO)s2)cc1", "activity change, negative = growth inhibition": "inactive: -17.2%"}
{"smiles": "CCc1ccc(NC(=O)C(C)Sc2nnc(CN3CCCC3)o2)cc1", "note": "(configuration not stated)", "activity change, negative = growth inhibition": "inactive: -10.4%"}
{"smiles": "COc1ccc(CCNC(=O)CC2Nc3ccccc3NC2=O)cc1", "note": "(configuration not stated)", "Potency": "inconclusive: 29.1 µM [inhibitor, single point]"}
{"smiles": "Cc1ccc(OCCn2cnc3c(N)ncnc32)cc1", "activity change, negative = growth inhibition": "inactive: 1.49%"}
